Source: patent publication US12144856B2 (priority 2019, dated 2024)

System: splenic follicular helper T cells (Tfh)
Details: mouse, in vivo, ip

CCCCCCCCCCCCCCCCOP(=O)([O-])OCC[N+](C)(C)C [miltefosine]
Percentage of splenic follicular helper T cells (Tfh): significantly higher
